Laboratory results reported in PubChem BioAssay (NCATS).
Inconclusive means that the source gave no clear call. Such entries were picked first, then a sample of the others. For some of these results: A potency beside an inconclusive call is a rough fit, not a confirmed value. Active and inactive are the calls of the source. Calls come from the whole dose curve; as a rule, active = well fitted curve in the direction sought with a large enough effect; inconclusive = small, poorly fitted or top-dose-only effect, or another doubt; inactive = no such curve, though single readings can be large; an effect the other way counts as inactive or inconclusive.

Tests used:
[1] = Primary qHTS for inhibitors of nuclear receptor binding SET domain protein 2 (NSD2) in an RCH-ACV wild type WT cells (2C) (AID 1645877); settings: activity change, negative = cell killing: at 44.9 µM (top of the series); note: nearly all actives have a fitted effect of over 70% in size
CRL-7250 = normal cell line; assay: Cytotoxic Profiling of Annotated Libraries Using Quantitative High-Throughput Screening (AID 1296008); settings: Five cell lines viability, CellTiter-Glo ATP luminescence, 48-72 h; max response: active compounds read low; note: nearly all actives have a fitted effect of over 60% in size; for max response: % is set by controls: 0 for no effect and ±100 for the full control effect
How it was run: (§1)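 Compounds were pin-transferred onto cells and incubated 48 or 72 hr at 37 degree Celsius, 95% humidity. CellTiter-Glo was added, plates sat 10 min at room temperature, then ATP-coupled luminescence was imaged as the viability read-out.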

HEK293 = assay: as above; settings: Five cell lines viability, CellTiter-Glo ATP luminescence, 48-72 h; max response: active compounds read low
How it was run: as §1

HaCat = assay: as above; settings: Five cell lines viability, CellTiter-Glo ATP luminescence, 48-72 h; max response: active compounds read low
How it was run: as §1

SKOV3 = assay: Primary qHTS to identify gynecologic anti-cancer compounds using libraries of approved drugs and bioactive compounds (AID 1345084); settings: Gynecologic cancer cell panel viability, ATPlite luminescence, 48 h; series mostly up to 57.5 µM; note: nearly all actives have a fitted effect of over 55% in size; for activity change, negative = cytotoxicity: % is set by controls: 0 for no effect and ±100 for the full control effect
How it was run: (§2)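 Cells, 1,000 per well, plated 16 h, then exposed 48 h at 37 C to compounds. Viability by ATPlite luminescence after 15 min at room temperature.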

[2] = P-glycoprotein substrates identified in KB-8-5-11 adenocarcinoma cell line, qHTS therapeutic library screen (AID 1346987); note: nearly all actives have a fitted effect of over 65% in size
How it was run: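 In this qHTS, P-gp-rich KB-8-5-11 cells received library compounds across a concentration range. Viability was quantified by luminescence after 72 h at 37 degree C.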

CAOV3 = assay: Primary qHTS to identify gynecologic anti-cancer compounds using libraries of approved drugs and bioactive compounds (AID 1345084); settings: Gynecologic cancer cell panel viability, ATPlite luminescence, 48 h; series mostly up to 57.5 µM; note: nearly all actives have a fitted effect of over 55% in size; for activity change, negative = cytotoxicity: % is set by controls: 0 for no effect and ±100 for the full control effect
How it was run: as §2

[3] = Primary fluorescence-based thiol-reactive (MSTI) qHTS assay for identification of artifact compounds. (AID 1845221);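 note: thiol-reactive compounds lower the probe fluorescence signal; nearly all actives have a fitted effect of over 65% in size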
How it was run: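 MSTI probe at 4 uM final in 2% DMSO/PBS pH 7.4; compounds, 1 h at room temperature in dark. Fluorescence Ex/Em 525/598 nm, normalised to Acetyl-MSTI and MSTI, fitted to 4-parameter Hill.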

JEG-3 = assay: Primary qHTS to identify gynecologic anti-cancer compounds using libraries of approved drugs and bioactive compounds (AID 1345084); settings: Gynecologic cancer cell panel viability, ATPlite luminescence, 48 h; series mostly up to 57.5 µM; note: nearly all actives have a fitted effect of over 55% in size
How it was run: as §2

CASKI = assay: as above; settings: Gynecologic cancer cell panel viability, ATPlite luminescence, 48 h; activity change, negative = cytotoxicity: at 57.5 µM (top of the series)
How it was run: as §2

[4] = Primary qHTS for inhibitors of nuclear receptor binding SET domain protein 2 (NSD2) in an isogenic RCH-ACV NSD2 p.E1099K mutant (9B) (AID 1645876); note: nearly all actives have a fitted effect of over 70% in size
Es-2 = assay: Primary qHTS to identify gynecologic anti-cancer compounds using libraries of approved drugs and bioactive compounds (AID 1345084); settings: Gynecologic cancer cell panel viability, ATPlite luminescence, 48 h; series mostly up to 57.5 µM; note: nearly all actives have a fitted effect of over 55% in size
How it was run: as §2

Hek293T = assay: as above; settings: Gynecologic cancer cell panel viability, ATPlite luminescence, 48 h, control line for the selectivity index; series mostly up to 57.5 µM
How it was run: as §2

OV90 = assay: as above; settings: Gynecologic cancer cell panel viability, ATPlite luminescence, 48 h; series mostly up to 57.5 µM
How it was run: as §2

PA-1 = assay: as above; settings: Gynecologic cancer cell panel viability, ATPlite luminescence, 48 h; series mostly up to 57.5 µM
How it was run: as §2

Tov-21-G = assay: as above; settings: Gynecologic cancer cell panel viability, ATPlite luminescence, 48 h; activity change, negative = cytotoxicity: at 57.5 µM (top of the series)
How it was run: as §2

KB-3-1 = assay: Cytotoxic Profiling of Annotated Libraries Using Quantitative High-Throughput Screening (AID 1296008); settings: Five cell lines viability, CellTiter-Glo ATP luminescence, 48-72 h; max response: active compounds read low; note: nearly all actives have a fitted effect of over 60% in size; for max response: % is set by controls: 0 for no effect and ±100 for the full control effect
How it was run: as §1

NIH3T3 = assay: as above; settings: Five cell lines viability, CellTiter-Glo ATP luminescence, 48-72 h; max response: active compounds read low
How it was run: as §1
Potency is the fitted concentration of half-maximal effect; tags give direction and shape of the fitted curve.

For `C/C=C(\C)C(=O)O[C@H]1C[C@](C)(O)[C@H]2CC=C(C)[C@H]2[C@@H]2OC(=O)[C@H](C)[C@H]21`, the Potency [1] was inconclusive: 16 µM [inhibitor, single point], the Potency (CRL-7250) was inconclusive: 16.1 µM [inhibitor, single point] and the Potency (HEK293) was inconclusive: 12.8 µM [inhibitor, single point]. The max response (HaCat) was inactive: 2.74% and the Potency (SKOV3) was “inactive”.
With `CC1(C)CCC2(C(=O)OC3OC(COC4OC(CO)C(O)C(O)C4O)C(O)C(O)C3O)CCC3(C)C(=CCC4C5(C)CCC(OC6OCC(O)C(O)C6O)C(C)(C)C5CCC43C)C2C1O` (stereo not drawn) the outcome [2] was “inactive [at 9.29 µM]”, the max response (CRL-7250) was inactive: -0.133% and the Potency (HEK293) was inconclusive: 7.78 µM [inhibitor, partial curve, poor fit]. The max response (HaCat) was inactive: -3.21% and the activity change, negative = cytotoxicity (CAOV3) was inactive: 1.87% [at 11.6 µM].
For `COc1cccc(NCCC2(c3ccccc3)CC(C)(C)OC(C)(C)C2)c1`, the Potency [2] was inconclusive: 16.4 µM [inhibitor, partial curve], the Potency [3] was inconclusive: 1.68 µM [inhibitor, full curve] and the max response (CRL-7250) was inactive: -3.59%. For the same molecule, the Potency (HEK293) was inconclusive: 29.1 µM [inhibitor, single point], the Potency (HaCat) was inconclusive: 32.6 µM [inhibitor, single point] and the Potency (JEG-3) was inconclusive: 0.447 µM [cytotoxic, single point]. The Potency (SKOV3) was “inactive”.
With `CCCCCCc1ccc(O)cc1O` the Potency [1] was inconclusive: 10.6 µM [inhibitor, partial curve], the Potency (CRL-7250) was inconclusive: 26.6 µM [inhibitor, partial curve, poor fit] and the Potency (HEK293) was inconclusive: 33.5 µM [inhibitor, single point]. The Potency (HaCat) was inconclusive: 23.7 µM [inhibitor, single point] and the Potency (CASKI) was “inactive”.
With `CC1=C[C@H](O)[C@H]2C(C)(C)CCC[C@]2(C)[C@@]1(O)CO` the max response (CRL-7250) was inactive: -1.57%, the max response (HEK293) was inactive: -4.11% and the max response (HaCat) was inactive: 3.1%. For the same molecule, the Potency (SKOV3) was inconclusive: 39.8 µM [rising, single point].
For `Clc1cccc(COc2cncc(N3CCNCC3)n2)c1`, the Potency [2] was inconclusive: 29.1 µM [inhibitor, single point], the Potency [4] was inconclusive: 29 µM [inhibitor, single point] and the Potency [1] was inconclusive: 16.3 µM [inhibitor, single point]. For the same molecule, the outcome (CRL-7250) was “inactive”, the Potency (HEK293) was inconclusive: 29.1 µM [inhibitor, single point] and the Potency (HaCat) was inconclusive: 6.51 µM [inhibitor, partial curve, poor fit].
In the case of `CC(=O)O[C@@H]1[C@H](O[C@@H]2O[C@@H](CO)[C@H](O)[C@H]2O)[C@@H](O[C@@H]2O[C@@H](C)[C@H](O[C@@H]3OC[C@@H](O)[C@H](O)[C@H]3O)[C@@H](O)[C@H]2O)[C@H](OC(=O)[C@]23CCC(C)(C)C[C@H]2C2=CCC4[C@@]5(C)CC[C@H](O[C@@H]6O[C@H](C(=O)O)[C@@H](O)[C@H](O)[C@H]6O[C@@H]6O[C@H](CO)[C@H](O)[C@H](O)[C@H]6O)[C@@](C)(C=O)C5CC[C@@]4(C)[C@]2(C)C[C@H]3O)O[C@@H]1C` (stereo partly drawn), the outcome [2] is reported as “inactive [at 9.29 µM]”, the Potency [4] is reported as inconclusive: 1.73 µM [inhibitor, partial curve] and the Potency [1] is reported as inconclusive: 2.74 µM [inhibitor, partial curve]. For the same molecule, the Potency (CRL-7250) was inconclusive: 4.36 µM [inhibitor, single point], the Potency (HEK293) was inconclusive: 2.75 µM [inhibitor, single point] and the Potency (HaCat) was inconclusive: 1.1 µM [inhibitor, full curve, poor fit]. For the same molecule, the Potency (Es-2) was inconclusive: 6.31 µM [cytotoxic, single point], the Potency (Hek293T) was inconclusive: 6.31 µM [cytotoxic, partial curve, poor fit] and the Potency (OV90) was inconclusive: 3.16 µM [cytotoxic, single point]. For the same molecule, the Potency (PA-1) was inconclusive: 6.31 µM [cytotoxic, single point] and the Potency (Tov-21-G) was inconclusive: 6.31 µM [cytotoxic, single point].
In the case of `Cc1cc(C(C)(C)C)c(O)c(C(C)(C)C)c1`, the Potency [2] is reported as “inactive”, the Potency [4] is reported as inconclusive: 29.9 µM [inhibitor, single point] and the Potency [1] is reported as inconclusive: 29.9 µM [inhibitor, single point]. The Potency (CRL-7250) was inconclusive: 23.7 µM [inhibitor, single point], the max response (HEK293) was inactive: -3.94% and the Potency (HaCat) was inconclusive: 33.5 µM [inhibitor, single point]. The Potency (CAOV3) was inconclusive: 4.47 µM [cytotoxic, single point].
For `CCS(=O)(=O)N1CC(CC#N)(n2cc(-c3ncnc4[nH]ccc34)cn2)C1`, the Potency [4] was inconclusive: 18.3 µM [inhibitor, partial curve], the Potency [1] was inconclusive: 23.1 µM [inhibitor, partial curve, poor fit] and the Potency (CRL-7250) was inconclusive: 37.2 µM [inhibitor, single point]. For the same molecule, the Potency (HEK293) was inconclusive: 18.4 µM [inhibitor, single point], the Potency (KB-3-1) was inconclusive: 33.2 µM [inhibitor, single point] and the Potency (NIH3T3) was inconclusive: 23.1 µM [inhibitor, single point]. For the same molecule, the Potency (SKOV3) was inconclusive: 31.6 µM [cytotoxic, single point] and the Potency (Tov-21-G) was inconclusive: 39.8 µM [cytotoxic, single point].
